± gives the standard deviation of the averaged measurements. This is one part of the list.
The sequences below were run on PfAP2-EXP AP2 domain (GST-tagged) (assay: gcPBM binding intensity (ln(normalized median fluorescence intensity)); higher = stronger DNA binding).
How it was run: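 Binding intensity is the highest Masliner-normalised natural-log median intensity over replicate spots in either probe orientation. To obtain it, GST-tagged P. falciparum DNA-binding domains made in E. coli were incubated for 1 h on an Agilent 4 × 180k array of primer-extended double-stranded 36-bp intergenic genomic probes plus negative controls. Detection used Alexa488 anti-GST antibody with scanning at 488 nm.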

Sequence	gcPBM binding intensity (ln)
TTTTTTTTTTTTTGCACACACATAATAGGTACAAAT [CACACA_site3577]	8.49 ± 0.35
CATATTTACTATCACACACACGATATATATAAATAT [CACACA_site1241]	8.66 ± 0.46
TTTTTTTTTTTTTTCTCACACATTTAATGATAATAT [CACACA_site5513]	8.52 ± 0.45
CTATTTTTATATTATTGTACGTTGTTATTATATATA [XGTACX_site1469]	8.96 ± 0.45
CTAAGCTAAGTAAGCTGTACTTCACCTTTATACAGT [XGTACX_site3087]	8.63 ± 0.33
TAATATTATTTAGAGTGTACTCATAAATCAACAAAA [XGTACX_site5269]	8.35 ± 0.36
ATATAGAACACCTGTGCATGCAAGTGCTAAAAAATT [TGCATGCA_site213]	10.175 ± 0.007
TTTATATTTATATATACACACATATACATCCTATTT [CACACA_site3079]	8.54 ± 0.31
ATATATATGGAAACAGTGCAATACATATATATATAT	10.1 ± 0.33
TTTTTCTTAAAAAATTGTACACATATATATATATAT [XGTACX_site542]	10.3 ± 0.22
ATTAAGTTAAACATTACACACTATGTATTATTTATG [CACACA_site973]	8.53 ± 0.43
TTTTTTTTTTTTAATACACACATATTTATATTTATT [CACACA_site7802]	8.44 ± 0.3
ATATTTTTATTTAAACGTACATACACGTTGAAAAGA [XGTACX_site4567]	8.46 ± 0.28
TGCTATATAATATGAGCACACATAAGATTTGGTGTT [CACACA_site8148]	8.28 ± 0.4
AACTGTACAATTTTTGTGCACAATAATTATTAATAT [GTGCAC_site9462]	9.04 ± 0.16
TTTTTCTTTTGATGTTGTACATATATATTATATATA [XGTACX_site2754]	8.71 ± 0.46
TAATGCATTATTAGAATACACACCATACGCATATTT [CACACA_site289]	8.61 ± 0.4
TGATGTTGTAACAAAAGTACACACACATTTCTATAA [XGTACX_site5837]	8.24 ± 0.21
TTTTCAATTAATAATACACACATGTATATATCATTA [CACACA_site7539]	8.3 ± 0.28

Sequence	gcPBM binding intensity (ln)
AAGAAAAAAAAAAAAAATATATATATAAGAACATAT [TGCATGCA_negctrl_site131]	8.91 ± 1
GATAAAACGTTATGCACACGTACGTGGGTATTTATA [CACACA_site4954]	8.85 ± 0.31
AATCTGATTTGTATATGTACACAAATATTTTTATTT [XGTACX_site5295]	8.74 ± 0.41
AACTATAAAAAAAATACACACATTACCAAAAATATA [CACACA_site1529]	8.61 ± 0.44
TATAAAAAAATATATATATATATATATATATAAATA [TGCATGCA_negctrl_site22]	8.57 ± 0.12
TTTAATAATTATTAAAGTACAAAATAAATATTGAAT [XGTACX_site7538]	8.79 ± 0.66
TTATGTAAAATCGATACATGCATTAATCATTTTATA [TGCATGCA_site493]	8.45 ± 0.33
TATGATATGTTATACACACACGTATTTATGAATTGA [CACACA_site7591]	8.54 ± 0.4
TCATATTTCCATAGGAGTACATAAAAAAAATAATAT [XGTACX_site7601]	8.69 ± 0.36
ATTTATATTAATGGATAAATAAATGTGTACTTGATA [CACACA_negctrl_site24]	8.345 ± 0.007
TTCTTTATTATATGCACACGTACATATAATATATAT [CACACA_site2018]	8.815 ± 0.049
AAAAAAAAAAAACACACACACATATATATATATATA [CACACA_site732]	10.2 ± 0.38
ATCAACAAAACATACACACACATATAGATTTATATA [CACACA_site7415]	8.59 ± 0.42
AATTAGCTATTTAAAAATATATAAAATTTATATATA [CACACA_negctrl_site390]	8.01 ± 0.39
ATCATATTGAATATTTAACACACATTTCGCTTAATT [CACACA_site8652]	8.64 ± 0.47
GAAATAGAGAGACACACACACATATATTTATGTATT [CACACA_site7794]	8.3 ± 0.45
AAAATGTAGAAATGGGTGCACACACATATATAATAT	9.05 ± 0.12
TATATATATAAAAGTTGTACAGTGTTTTATATAGTT [XGTACX_site7085]	8.925 ± 0.078
TATATATATATATATATATATATATATGTGTATGTA [TGCATGCA_negctrl_site255]	10.1 ± 0.33

Sequence	gcPBM binding intensity (ln)
TATATATTTATTTATTGTACACTCTTTAAGAATACA [XGTACX_site2569]	8.48 ± 0.22
GATTCGATCTATATATGTACACATAAATATTTTTTG [XGTACX_site7015]	8.83 ± 0.31
AATAAAATTGACCATTCACACAAGAAAAATTAATCA [CACACA_site5636]	8.37 ± 0.32
ATACACAAGAATATGTTGCACTTTTATATTCGTATG	8.8 ± 0.34
GATATATAAATTGACACACACATATATACCTATATA [CACACA_site6689]	8.53 ± 0.36
TTCTTTTTTTTTTTTTCATGTATATTAAACTTTTCA [TGCATGCA_negctrl_site592]	8.49 ± 0.51
CATAAGATTTTTACATGTACATATTTATAATATATT [XGTACX_site6578]	8.96 ± 0.4
AATATTTATATTAACTGTACAGAAAATATCTTTGCT [XGTACX_site8130]	8.38 ± 0.36
TATGCCATGGCATAATGTACATAAGTGACCTCATAA [XGTACX_site1294]	8.74 ± 0.49
AATATAAAAATGTTTACACACACACCGAAATATATT [CACACA_site8800]	8.97 ± 0.36
ATATATTTAAAAAAATGTACAAATCATAAATGCAAG [XGTACX_site4230]	8.78 ± 0.34
AAAAAATTATACCAGTGTACTTTTTTGGTTTTTCTT [XGTACX_site2601]	8.51 ± 0.36
AGAAATTAAATGTAAGCACACATAAATTATACACAT [CACACA_site9098]	8.56 ± 0.37
TATAATGTTGATGATAGTACGTATGAGTTCAAAAAA [XGTACX_site3651]	8.7 ± 0.34
AAAAGAATTAATTTATGTACTAATTTCAAGAAATAA [XGTACX_site3241]	8.11 ± 0.25
CTCGATCAAGTGTATGCATGTACCAGTGAACAAAAA [TGCATGCA_site635]	9.04 ± 0.56
ATATATTATCAACTTACACACAGAAAACTATAATAA [CACACA_site6275]	8.73 ± 0.38
CTTTTTCCTTTATAAAGTACTTAAAATATTTAGATA [XGTACX_site4259]	8.61 ± 0.49
TCCTTACACACACTTTTTTTTTTTTTTTTTTCTACA [GTGCAC_negctrl_site263]	8.58 ± 0.54

From the supplement of paper PMC11417369
